Data taken from patent US20250145587A1, “BROMODOMAIN INHIBITORS” (AbbVie Inc., priority 2016, published 2025).

Target: BRD4 (BDII_E352-M457) (Homo sapiens, UniProt O60885)
Assay: TR-FRET bromodomain binding assay, BRD4 second bromodomain (BDII)
Procedure: A time-resolved fluorescence resonance energy transfer (TR-FRET) assay was used to determine the affinities of compounds of the Examples listed in Table 1 for each bromodomain of BRD4. […] An Alexa647-labeled BET-inhibitor was used as the fluorescent probe in the assay.
(§1) Compound dilution series were prepared in DMSO via an approximately 3-fold serial dilution. Compound dilutions were added directly into white, low-volume assay plates (Perkin Elmer Proxiplate 384 Plus #6008280) using a Labcyte Echo in conjunction with Labcyte Access and Thermo Multidrop CombinL robotics. Compounds were then suspended in eight microliters (μL) of assay buffer (20 mM Sodium Phosphate, pH 6.0, 50 mM NaCl, 1 mM Ethylenediaminetetraacetic acid disodium salt dihydrate, 0.01% Triton X-100, 1 mM DL-Dithiothreitol) containing His-tagged bromodomain, Europium-conjugated anti-His antibody (Invitrogen PV5596) and Alexa-647-conjugated probe.
After a one-hour equilibration at room temperature, TR-FRET ratios were determined using an Envision multilabel plate reader (Ex 340, Em 495/520).
TR-FRET data were normalized to the means of 24 no-compound controls (“high”) and 8 controls containing 1 μM un-labeled probe (“low”). Percent inhibition was plotted as a function of compound concentration and the data were fit with the 4 parameter logistic equation to obtain IC50s. Inhibition constants (Ki) were calculated from the IC50s, probe Kd and probe concentration.
Compound dilution series for Compounds A-E were prepared in DMSO via an approximately 3-fold serial dilution from 0.47 mM to 7.8 nM.
as §1, with “Compound” for “Compound dilution series were prepared in DMSO via an approximately 3-fold serial dilution. Compound”
The final concentration of 1× assay mixture contained 2% DMSO, 8 nM His-tagged bromodomain, 1 nM Europium-conjugated anti-His-tag antibody and 100 nM or 30 nM probe (for BDI or BDII, respectively) and compound concentration in the range of […]-150 μM.
TR-FRET data were normalized to the means of 24 no-compound controls (“high”) and 8 controls containing 1 μM un-labeled probe (“low”). Percent inhibition was plotted as a function of compound concentration and the data were fit with the 4 parameter logistic equation to obtain IC50s. Inhibition constants (Ki) were calculated from the IC50s, probe Kd and probe concentration. Typical Z′ values were between 0.65 and 0.75. The minimum significant ratio was determined to evaluate assay reproducibility (Eastwood et al., (2006) J Biomol Screen, 11: 253-261). The MSR was determined to be 2.03 for BDI and 1.93 for BDII, and a moving MSR (last six run MSR overtime) for both BDI and BDII was typically <3.

SMILES | Ki [nM]
CCS(=O)(=O)c1ccc(Oc2c(C)cccc2C)c(-c2cn(C)c(=O)cc2O[C@H]2CC[C@H](NC(=O)OC)CC2)c1 [Example 3, methyl [trans-4-({5-[2-(2,6-dimethylphenoxy)-5-(ethanesulfonyl)phenyl]-1-methyl-2-oxo-1,2-dihydropyridin-4-yl}oxy)cyclohexyl]carbamate] | 3.13
CCS(=O)(=O)c1ccc(Oc2c(C)cccc2C)c(-c2cn(C)c(=O)cc2O[C@H]2CC[C@@H](NC(C)=O)CC2)c1 [Example 2, N-[cis-4-({5-[2-(2,6-dimethylphenoxy)-5-(ethanesulfonyl)phenyl]-1-methyl-2-oxo-1,2-dihydropyridin-4-yl}oxy)cyclohexyl]acetamide] | 22.7
CCS(=O)(=O)c1ccc(Oc2c(C)cccc2C)c(-c2cn(C)c(=O)cc2O[C@H]2CC[C@H](NC(=O)COC)CC2)c1 [Example 9, N-[trans-4-({5-[2-(2,6-dimethylphenoxy)-5-(ethanesulfonyl)phenyl]-1-methyl-2-oxo-1,2-dihydropyridin-4-yl}oxy)cyclohexyl]-2-methoxyacetamide] | 5.08
CCS(=O)(=O)c1ccc(Oc2c(C)cccc2C)c(-c2cn(C)c(=O)cc2O[C@H]2CC[C@H](NC(=O)C(F)(F)F)CC2)c1 [Example 6, N-[trans-4-({5-[2-(2,6-dimethylphenoxy)-5-(ethanesulfonyl)phenyl]-1-methyl-2-oxo-1,2-dihydropyridin-4-yl}oxy)cyclohexyl]-2,2,2-trifluoroacetamide] | 1.53
CCC(=O)N[C@H]1CC[C@H](Oc2cc(=O)n(C)cc2-c2cc(S(=O)(=O)CC)ccc2Oc2c(C)cccc2C)CC1 [Example 7, N-[trans-4-({5-[2-(2,6-dimethylphenoxy)-5-(ethanesulfonyl)phenyl]-1-methyl-2-oxo-1,2-dihydropyridin-4-yl}oxy)cyclohexyl]propanamide] | 9.67
CCS(=O)(=O)c1ccc(Oc2c(C)cccc2C)c(-c2cn(C)c(=O)cc2O[C@H]2CC[C@H](NC(=O)C3(C)COC3)CC2)c1 [Example 12, N-[trans-4-({5-[2-(2,6-dimethylphenoxy)-5-(ethanesulfonyl)phenyl]-1-methyl-2-oxo-1,2-dihydropyridin-4-yl}oxy)cyclohexyl]-3-methyloxetane-3-carboxamide] | 2.26
CCS(=O)(=O)c1ccc(Oc2c(C)cccc2C)c(-c2cn(C)c(=O)cc2O[C@H]2CC[C@H](NC(=O)C(C)(C)C)CC2)c1 [Example 8, N-[trans-4-({5-[2-(2,6-dimethylphenoxy)-5-(ethanesulfonyl)phenyl]-1-methyl-2-oxo-1,2-dihydropyridin-4-yl}oxy)cyclohexyl]-2,2-dimethylpropanamide] | 25.7
CCS(=O)(=O)c1ccc(Oc2c(C)cccc2C)c(-c2cn(C)c(=O)cc2O[C@H]2CC[C@H](NS(C)(=O)=O)CC2)c1 [Example 4, N-[trans-4-({5-[2-(2,6-dimethylphenoxy)-5-(ethanesulfonyl)phenyl]-1-methyl-2-oxo-1,2-dihydropyridin-4-yl}oxy)cyclohexyl]methanesulfonamide] | 10.4
CCS(=O)(=O)c1ccc(Oc2c(C)cccc2C)c(-c2cn(C)c(=O)cc2O[C@H]2CC[C@H](NC(=O)OC(C)(C)C)CC2)c1 [Example 5, tert-butyl [trans-4-({5-[2-(2,6-dimethylphenoxy)-5-(ethanesulfonyl)phenyl]-1-methyl-2-oxo-1,2-dihydropyridin-4-yl}oxy)cyclohexyl]carbamate] | 13.5
CCS(=O)(=O)c1ccc(Oc2c(C)cccc2C)c(-c2cn(C)c(=O)cc2O[C@H]2CC[C@H](NC(=O)C3CC3)CC2)c1 [Example 11, N-[trans-4-({5-[2-(2,6-dimethylphenoxy)-5-(ethanesulfonyl)phenyl]-1-methyl-2-oxo-1,2-dihydropyridin-4-yl}oxy)cyclohexyl]cyclopropanecarboxamide] | 12.5
CCS(=O)(=O)c1ccc(Oc2c(C)cccc2C)c(-c2cn(C)c(=O)cc2O[C@H]2CC[C@H](NC(C)=O)CC2)c1 [Example 1, N-[trans-4-({5-[2-(2,6-dimethylphenoxy)-5-(ethanesulfonyl)phenyl]-1-methyl-2-oxo-1,2-dihydropyridin-4-yl}oxy)cyclohexyl]acetamide] | 2.55
CCS(=O)(=O)c1ccc(Oc2c(C)cccc2C)c(-c2cn(C)c(=O)cc2O[C@H]2CC[C@H](NC(=O)C3(C)CC3)CC2)c1 [Example 10, N-[trans-4-({5-[2-(2,6-dimethylphenoxy)-5-(ethanesulfonyl)phenyl]-1-methyl-2-oxo-1,2-dihydropyridin-4-yl}oxy)cyclohexyl]-1-methylcyclopropane-1-carboxamide] | 41.8
CCS(=O)(=O)c1ccc(Oc2c(C)cccc2C)c(-c2cn(C)c(=O)cc2O[C@H]2CC[C@H](NC(=O)C3CC(F)(F)C3)CC2)c1 [Example 13, N-[trans-4-({5-[2-(2,6-dimethylphenoxy)-5-(ethanesulfonyl)phenyl]-1-methyl-2-oxo-1,2-dihydropyridin-4-yl}oxy)cyclohexyl]-3,3-difluorocyclobutane-1-carboxamide] | 3.06

Next, values leading:

Ki [nM] | SMILES
2.91 | CCS(=O)(=O)c1ccc(Oc2c(C)cc(F)cc2C)c(-c2cn(C)c(=O)cc2O[C@H]2CC[C@H](N3CCCC3=O)CC2)c1 [Example 19, 5-[5-(ethanesulfonyl)-2-(4-fluoro-2,6-dimethylphenoxy)phenyl]-1-methyl-4-{[trans-4-(2-oxopyrrolidin-1-yl)cyclohexyl]oxy}pyridin-2(1H)-one]
0.508 | CCS(=O)(=O)Nc1ccc(Oc2c(C)cc(C(C)(C)O)cc2C)c(-c2cn(C)c(=O)cc2O[C@H]2CC[C@H](NC(=O)OC)CC2)c1 [Example 15, methyl {trans-4-[(5-{5-[(ethanesulfonyl)amino]-2-[4-(2-hydroxypropan-2-yl)-2,6-dimethylphenoxy]phenyl}-1-methyl-2-oxo-1,2-dihydropyridin-4-yl)oxy]cyclohexyl}carbamate]
1.37 | CCS(=O)(=O)Nc1ccc(Oc2c(C)cc(F)cc2C)c(-c2cn(C)c(=O)cc2O[C@H]2CC[C@H](NC(=O)OC)CC2)c1 [Example 16, methyl {trans-4-[(5-{5-[(ethanesulfonyl)amino]-2-(4-fluoro-2,6-dimethylphenoxy)phenyl}-1-methyl-2-oxo-1,2-dihydropyridin-4-yl)oxy]cyclohexyl}carbamate]
1.75 | CCS(=O)(=O)Nc1cnc(Oc2c(C)cc(F)cc2C)c(-c2cn(C)c(=O)cc2O[C@H]2CC[C@H](NC(=O)OC)CC2)c1 [Example 17, methyl [trans-4-({5′-[(ethanesulfonyl)amino]-2′-(4-fluoro-2,6-dimethylphenoxy)-1-methyl-6-oxo[1,6-dihydro[3,3′-bipyridine]]-4-yl}oxy)cyclohexyl]carbamate]
3.3 | CCS(=O)(=O)c1ccc(Oc2c(C)cc(F)cc2C)c(-c2cn(C)c(=O)cc2O[C@H]2CC[C@H](N(C)C(C)=O)CC2)c1 [Example 20, N-[trans-4-({5-[5-(ethanesulfonyl)-2-(4-fluoro-2,6-dimethylphenoxy)phenyl]-1-methyl-2-oxo-1,2-dihydropyridin-4-yl}oxy)cyclohexyl]-N-methylacetamide]
15.1 | COC(=O)N[C@H]1CC[C@H](Oc2cc(=O)n(C)cc2-c2cc(CS(C)(=O)=O)ccc2Oc2c(C)cc(F)cc2C)CC1 [Example 18, methyl {trans-4-[(5-{2-(4-fluoro-2,6-dimethylphenoxy)-5-[(methanesulfonyl)methyl]phenyl}-1-methyl-2-oxo-1,2-dihydropyridin-4-yl)oxy]cyclohexyl}carbamate]
0.504 | CCS(=O)(=O)Nc1ccc(Oc2c(C)cc(C(C)(C)O)cc2C)c(-c2cn(C)c(=O)cc2O[C@H]2CC[C@H](NC(C)=O)CC2)c1 [Example 14, N-{trans-4-[(5-{5-[(ethanesulfonyl)amino]-2-[4-(2-hydroxypropan-2-yl)-2,6-dimethylphenoxy]phenyl}-1-methyl-2-oxo-1,2-dihydropyridin-4-yl)oxy]cyclohexyl}acetamide]
